# Test results published in PubChem BioAssay AID760 (NMMLSC, 2007).
# Among all 190,000 compounds or so, about 360 (0.19%) were called active. Inconclusive means that the source gave no clear call. Such entries were picked first, then a sample of the others.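 Rule for the calls: active = GTP binding activity at least 20 points away from 100%, either lowered or raised; inconclusive = signal likely due to the compound's own green fluorescence; inactive = the rest.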
# Target: Ras-related protein Rab-2A (Canis lupus familiaris) (UniProt P61105)
# Assay: Rab2 wt fluorescent GTP binding changes, either direction – biochemical, dog, bead-based flow cytometry, multiplex, primary screen (AID 760);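 note: 0% = beads with excess unlabeled GTP and 100% = no-compound control corrected for plate trend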
# Conditions: GST-Rab2 wt beads, Bodipy-GTP binding, at 10 µM
row,Compound,GTP binding activity
1,COc1ccc(N2CCN(C(=O)CSc3nnc4c5cc(C)ccc5n(C)c4n3)CC2)cc1,inconclusive: 90%
2,COc1cc2[nH]c3c(N4CCN(c5ccc(Cl)cc5)CC4)ncnc3c2cc1OC,inconclusive: 107%
3,Fc1cccc(CN2CCN(c3nc4nonc4nc3NC3CC3)CC2)c1,inconclusive: 92%
4,CC(C)=C1SC(N2CCN(c3cccc(C(F)(F)F)c3)CC2)=NC1=O,inconclusive: 92%
5,COc1cc(NC(=S)NCC2CCCO2)c(OC)cc1Cl (stereo unspecified),inconclusive: 109%
6,Cc1cc([N+](=O)[O-])nn1CCC(=O)Nc1nccs1,inactive: 99%
7,Cc1ccc(SCC(=O)Nc2ccc(F)cc2[N+](=O)[O-])cc1C,inconclusive: 95%
8,Cn1c(SCc2ccc(F)cc2)nnc1-c1cccs1,inconclusive: 103%
9,Cc1cccc(-n2c(SCc3cc(=O)n4c(C)cccc4n3)nc3[nH]ncc3c2=O)c1,inconclusive: 93%
10,O=C(NC(=S)NCCCN1CCOCC1)c1cccc2ccccc12,inactive: 105%
11,COc1ccc(NC(=S)NCCc2c[nH]c3ccc(OC)cc23)c(OC)c1,inconclusive: 100%
12,O=C(N/N=C/c1sc(=O)n(-c2ccccc2)c1Cl)c1ccncc1,inconclusive: 102%
13,CC(/C=N/NC(=O)c1sc(N)nc1C)=C\c1ccccc1,inactive: 100%
14,O=C(CSc1cccc[n+]1[O-])c1cc(Cl)ccc1Cl,inactive: 100%
15,COC(=O)CN(C(=O)CSc1nnc(-c2cccc(OC)c2)o1)c1ccc(OC)cc1,inconclusive: 103%
16,O=C(COC(=O)CCc1c[nH]c2ccccc12)Nc1cc([N+](=O)[O-])ccc1Cl,inconclusive: 90%
17,Cc1ccc2[nH]c3nc(SCCN4CCOCC4)nnc3c2c1,inconclusive: 88%
18,O=C(C(c1ccccc1)c1ccccc1)N1CCN(Cc2ccncc2)CC1,inconclusive: 107%
19,Cc1ccc(S(=O)(=O)N(C)C)cc1NC(=O)COC(=O)C1COc2ccccc2O1 (stereo unspecified),inconclusive: 90%
20,CCS(=O)(=O)N1CCCC(C(=O)NCC2CCCO2)C1 (stereo unspecified),inconclusive: 105%
21,O=C(O)c1ccc(CNCc2ccc(F)cc2)cc1,inactive: 85%
22,Cc1ccc(NC(=S)NCc2ccc(S(N)(=O)=O)cc2)cc1Cl,inconclusive: 98%
23,Cc1ccc2c(CC(=O)NC3CCCc4ccccc43)coc2c1 (stereo unspecified),inconclusive: 104%
24,CCOc1ccc(-c2nc[nH]c2[N+](=O)[O-])cc1,inactive: 97%
25,O=c1[nH]c(/C(=N\O)c2ccccc2)no1,inconclusive: 86%
26,COC(=O)c1ccc(/C=N/N2C(C)CCCC2C)cc1 (stereo unspecified),inactive: 100%

row,Compound,GTP binding activity
1,c1ccc(Nc2nc(-c3ccccn3)cs2)cc1,inactive: 101%
2,Cc1ccc(-c2csc3nc4c5ccccc5c(NCCCN5CCOCC5)nn4c(=O)c23)cc1,active: 59%
3,COc1cccc(OCC(=O)NNC(=S)Nc2ccc(Cl)cc2Cl)c1,inactive: 93%
4,CCn1c(COc2ccccc2)nnc1SCC(=O)c1cccc([N+](=O)[O-])c1,inconclusive: 109%
5,Cc1nc2sccn2c1-c1nc(-c2cc3ccccc3o2)cs1,active: 77%
6,CCOc1ccc2c(c1)sc(=NC(=O)C1CC1)n2C,inconclusive: 89%
7,O=C(c1cccnc1)N1C2C=CC(C2)C1(C(F)(F)F)C(F)(F)F (stereo unspecified),inconclusive: 91%
8,COc1cc(/C=C2/NC(=O)NC2=O)cc(Br)c1OCc1ccc(C(=O)O)cc1,inconclusive: 88%
9,COc1ccc(N2CCN(c3ccc(Cl)nn3)CC2)cc1,inactive: 100%
10,COc1ccc(/C=C/c2nc3ccccc3n2C)cc1,inconclusive: 100%
11,CCn1c(SCC(=O)c2ccc(Cl)cc2)nnc1-c1ccoc1C,inconclusive: 93%
12,CCc1cccc(CC)c1-n1c(SCC(=O)c2c(N)n(C)c(=O)n(C)c2=O)nnc1-c1cccnc1,inconclusive: 96%
13,CC(=O)Nc1ccc(NC(=O)c2ccccc2CCc2ccccc2)cc1,inactive: 94%
14,CCCCNS(=O)(=O)c1ccc2c(c1)oc(=O)n2CC(=O)OCC,inconclusive: 105%
15,Cc1cc(OCc2ccc(C(=O)n3cccn3)o2)ccc1Cl,inconclusive: 94%
16,COCc1c(C(=O)OCc2c(C)noc2C)oc2ccccc12,inconclusive: 95%
17,O=C(Cc1ccc(Cl)cc1)c1c[nH]c(C(=O)NCCCn2ccnc2)c1,inconclusive: 92%
18,COCCNC(=O)CSc1nc2ccccc2c(=O)n1CC1CCCO1 (stereo unspecified),inconclusive: 107%
19,O=C(C[n+]1cc(Br)cc(Br)c1)c1cccc([N+](=O)[O-])c1,inactive: 96%
20,Cn1c(=O)c2cc(S(=O)(=O)NCCC(=O)NCc3ccccc3Cl)ccc2n(C)c1=O,active: 64%
21,O=C(c1ccc(-c2ccccc2)cc1)N1CCN(Cc2ccccn2)CC1,inconclusive: 100%
22,Cc1ccc(-c2csc(/C(C#N)=C/Nc3ccccc3SC(F)(F)F)n2)c(C)c1,inactive: 99%
23,CCc1ccc(CNC(=O)CCc2nnc(CCc3ccc(OC)cc3)o2)nc1,inconclusive: 96%
24,COc1ccc(C2=Nn3c(nnc3-c3ccco3)SC2)cc1OC,inconclusive: 60%
25,O=C(c1cc([N+](=O)[O-])ccc1Cl)N1CCN(c2ccccc2)CC1,inconclusive: 102%
